# In all, about 1,400 sequences were measured (“thermal melting temperature (Tm) of peptide-HLA complex”: median about 60, lowest 2% from about 45 on). This is one part of the list.
# Target: HLA-B*07:02
# Experiment: thermal melting temperature (Tm) of peptide-HLA complex; higher = more thermostable pHLA complex
# Settings: C1R-B*07:02
# 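Further: cell lysates heated 10 min at 37–73 °C, remaining pHLA pulled down with pan-class I antibody, peptides quantified by DIA-MS versus 37 °C, Tm where half the complex is lost.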
row,Sequence,thermal melting temperature [°C]
1,LPSTLRTLEL,61.4
2,MPQGNPLLL,62.6
3,APAPRPSLL,60.1
4,APPGVRGAL,55.6
5,HPISNNNSL,41.6
6,YPRLGGFVM,62.7
7,FPRPVTVEP,57.1
8,SPAPDPRAL,58.7
9,QPTVRITEL,59.3
10,LPGISREAL,41.3
11,SPLHLAAEL,50.2
12,RPNGTKVAVL,60.1
13,MPSLKHIVEL,59.9
14,RPSQNLLQL,61.3
15,YPGAERNLL,60.8
16,QPAAQRGLVLL,61.3
17,SPFFERSGL,62.7
18,SPYPGLRLISL,62.1

row,Sequence,thermal melting temperature [°C]
1,APRPLQPYL,60.9
2,RPSQFPHSL,56.4
3,LPKSHLEPSL,50.2
4,RPKAQPTTL,58
5,HPRGGVIQSV,50.4
6,HPNEGALVL,57.4
7,LTRPGSSSL,57.4
8,RPSDEVIREL,55.3
9,IPLKPSNEL,59.1
10,KVRGISEVL,60.5
11,APFQGDQRSL,57.9
12,APRIALHTAL,60.6
13,APILKRAL,60.8
14,VPASQKLRQL,59.7
15,KPSESIYSAL,59.5
16,QPRDFGDSL,56.9
17,SPRTSLTVV,57.1
18,SPVSYLRVSM,61.5
